# Test results from PubChem BioAssay AID1347055 (National Center for Advancing Translational Sciences (NCATS), 2019).
# Where “and” joins values, the source holds several entries; their conditions need not be identical. Identical values can stand only once. About 120 (0.22%) of roughly 54,000 compounds were called active. The shares of active, inactive and inconclusive entries below differ from those in the screen. Calls come from the whole dose curve; as a rule, active = well fitted inhibition curve with a large enough effect; inconclusive = small, poorly fitted or top-dose-only effect, or effect the other way; inactive = flat fitted curve, though single readings scatter. Potencies of inconclusive entries are doubtful fits and often do not repeat.
# Target: Fumarate hydratase, mitochondrial (Homo sapiens) (UniProt P07954)
# Assay: Identification of activators of human fumarate hydratase by quantitative high-throughput screening; note: the screen sought activators but most active calls are inhibition curves; nearly all actives have a fitted effect of over 45% in size
# Details: FH coupled MDH/diaphorase resazurin fluorescence, 15 min; series mostly up to 79.9 µM
# Potency is the fitted concentration of half-maximal effect; tags give direction and shape of the fitted curve.
# UniProt P07954, sequence (P07954 whole entry, looked up): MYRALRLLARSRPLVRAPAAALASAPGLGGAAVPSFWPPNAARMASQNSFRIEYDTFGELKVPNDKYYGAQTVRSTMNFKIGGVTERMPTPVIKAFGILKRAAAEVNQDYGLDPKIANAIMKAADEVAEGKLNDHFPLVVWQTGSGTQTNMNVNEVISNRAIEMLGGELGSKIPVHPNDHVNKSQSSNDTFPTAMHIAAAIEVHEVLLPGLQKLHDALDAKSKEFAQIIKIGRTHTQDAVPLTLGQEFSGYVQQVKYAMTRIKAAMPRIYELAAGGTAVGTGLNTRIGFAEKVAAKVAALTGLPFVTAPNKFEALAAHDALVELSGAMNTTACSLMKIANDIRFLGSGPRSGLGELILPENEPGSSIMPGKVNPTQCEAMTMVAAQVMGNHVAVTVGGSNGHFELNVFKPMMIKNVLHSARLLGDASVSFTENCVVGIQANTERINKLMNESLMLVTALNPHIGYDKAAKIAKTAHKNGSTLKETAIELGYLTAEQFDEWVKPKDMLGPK
row,SMILES,Potency
1,C=Cc1c(C)c2cc3[nH]c(cc4nc(cc5nc(cc1[nH]2)C(C)=C5CCC(=O)O)C(CCC(=O)O)=C4C)c(C)c3C=C,"inactive and inconclusive: 35.5 µM [inhibitor, single point]"
2,CCOCc1cc(CN2CCN(c3cccc(Cl)c3)CC2)c(O)c2ncccc12,"inconclusive: 25.1 µM [activator, partial curve, poor fit]"
3,CCc1ccc(Nc2nc(N)nc(CSc3nc4ccccc4s3)n2)cc1,"inconclusive: 22.4 µM [inhibitor, partial curve, poor fit]"
4,COC(=O)c1c(-c2ccc(Cl)cc2)noc1N1CCN(c2cccc(C(F)(F)F)c2)CC1,inactive
5,CCCn1ccc2c(OCC(=O)NCc3ccccc3Cl)cccc2c1=O,inactive
6,Cc1ccc(CS(=O)(=O)c2ncc(Cl)c(C(=O)Nc3nc4ccc(F)cc4s3)n2)cc1,inactive
7,CN[C@H](C(=O)N[C@H](C(=O)N(C)[C@H](/C=C(\C)C(=O)O)C(C)C)C(C)(C)C)C(C)(C)c1ccccc1,inactive
8,O=C1OC2(c3ccccc31)c1cc(I)c(O)c(I)c1Oc1c2cc(I)c(O)c1I,"inconclusive: 24.6 µM [inhibitor, single point]"
9,Cc1ccc(NS(=O)(=O)c2ccc3c(c2)CCCN3C(=O)C2CCC2)cc1Cl,"inconclusive: 31.6 µM [inhibitor, single point]"
10,CCOc1ccccc1NS(=O)(=O)c1ccc(-c2cnc(C3CC3)o2)cc1,"inconclusive: 15.8 µM [inhibitor, partial curve, poor fit]"
11,C=Cc1ccc(Cn2c(C(=O)O)c(CNCc3ccccc3)c3ccc(C)cc32)cc1,"inconclusive: 39.8 µM [inhibitor, single point]"
12,CC(=O)N1CCCc2cc(S(=O)(=O)N3CCCC(C(=O)Nc4cc(Cl)ccc4C)C3)ccc21 (stereo unspecified),"inconclusive: 28.2 µM [inhibitor, partial curve, poor fit]"
13,CSc1ccc2c(c1)C(N1CCN(C)CC1)Cc1ccccc1S2 (stereo unspecified),"inconclusive: 39.8 µM [inhibitor, single point]"
14,CC(=O)OC[C@H]1O[C@H](O[C@]2(CO)O[C@H](CO)[C@@H](OC(=O)/C=C/c3ccccc3)[C@@H]2O)[C@H](O)[C@@H](O)[C@@H]1O,inactive
15,Cc1cc(C)cc(NS(=O)(=O)c2ccc3c(c2)CCCN3C(=O)C2CCC2)c1,"inconclusive: 44.7 µM [inhibitor, single point]"
16,CCOCCCn1c(SCC(=O)Nc2ccc(C)cc2)nc2ccccc2c1=O,"inconclusive: 25.1 µM [inhibitor, single point]"
